Source: the supplement of paper PMC11417369
± gives the standard deviation of the averaged measurements. The list shows a part of the results.

tested on: PfAP2-G AP2 domain (GST-tagged); test: gcPBM binding intensity (ln(normalized median fluorescence intensity)); higher = stronger DNA binding
Procedure, shortened: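 The highest Masliner-normalised natural-log median intensity across replicate spots of either probe orientation is reported as binding intensity. GST-tagged P. falciparum DNA-binding domains expressed in E. coli were applied for 1 h to an Agilent 4 × 180k array of primer-extended double-stranded 36-bp intergenic genomic probes plus negative controls, and bound protein was detected with Alexa488 anti-GST antibody and scanned at 488 nm.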

Sequence	gcPBM binding intensity (ln)
AACAAATATATATGTAGTACATGTTGTAGATAATTT [XGTACX_site24]	11.5 ± 0.71
TTTTTTTTTTTAAATTCACACAATATATAAATATTG [CACACA_site5201]	9.89 ± 0.057
AGAAAAATTATTTTGCGTACATATTTACAATAAAAA [XGTACX_site2144]	11.5 ± 0.75
TATATGTATATATATTAACACACAAAAAAAAAAAAA [CACACA_site8534]	9.82 ± 0.42
TAAACAAATAAATAAACACACAATATCTGTATTTAT [CACACA_site5978]	9.27 ± 0.69
TTTTTCAGAAAAGAAACACACATATTTATATTTATA [CACACA_site7167]	9.85 ± 0.057
AGTAATAGTTTGTGCACACTCAAGTATATCATATAT [CACACA_site4034]	10.6 ± 0.29
TTTTACTTAAAACACACACACACAAAAAAAAAAAAA [CACACA_site947]	10 ± 0.57
ATTAAATCGATATATACACACATGTTTGGTATATTC [CACACA_site7285]	9.8 ± 0.15
TTAAAATAAAGTAGTGGTACAAAAAAAAAAAAAAAA [XGTACX_site6322]	11.2 ± 1.2
TAACCTATAATATTCACACACATATAAATATTATAG [CACACA_site6592]	9.86 ± 0.36
GTGTAATATATTTTTCGTACATATTATATATATATA [XGTACX_site1675]	11 ± 0.69
TTATACACCTTTCATTGTACATATAATTTATATTCT [XGTACX_site8685]	11.2 ± 0.59
TATATATATATATATTGTACAAAATATTTATATGTT [XGTACX_site436]	10.7 ± 0.26
TAATTAATTTATTAGTTGCACTGTACCATTAGAGTA	11 ± 0.87
GTTCATAAATTAAACACACACACACCCCTGGATACC [CACACA_site3331]	10.8 ± 0.58
TCTTCTAATTTACCTACACACAGGAGATATATAAAT [CACACA_site6276]	9.97 ± 0.042
TATATTACTTTGTGTTGTACGGAAATATATATATAT [XGTACX_site4309]	11.3 ± 0.94
ATATTTTATTTAATTACACACAATATTGCAATTTGT [CACACA_site669]	10.09 ± 0.021
AAGGATTTTTTATACACACACTAACTAATGTATATA [CACACA_site7163]	10.03 ± 0.042
TAATACCATAACAAGTGTACATAAATAATTATTGTA [XGTACX_site4949]	11.5 ± 0.81
AATATTCAATATATATATATATATAATATTAATATA [GTGCAC_negctrl_site571]	9.515 ± 0.021
ATAGCACATTTTTAAGCACACGTTTATTATATATAT [CACACA_site6084]	10.3 ± 0.24
CAAAAATATATTTTTTGTACACAAAAAAAAAATAAA [XGTACX_site5229]	11.4 ± 0.98
ATAATTATTCTTATGGTGCACTGAATATACATGTTG [GTGCAC_site9760]	10.5 ± 0.28
